# From the supplement of paper PMC7266297
# Where a name gives a salt, the structure may show the parent alone. The list shows a part of the results. Repeats are few or missing, and single values can be far off.
# Experiments:
# [1] = system: KB-3-1; experiment: growth inhibition relative to DMSO control (SRB); cervical cancer cells: KB-3-1 is the parent and KB-V1 overexpresses MDR1; SRB is the sulforhodamine B stain; higher = more growth inhibition; conditions: 1 µM; 72 h
# [2] = system: KB-V1; experiment: as above; conditions: 1 µM; 72 h
# 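Further: Read-out is SRB optical density at 490 nm, with the control being wells given 0.5% DMSO vehicle, and compound added one day after cells were plated.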
Compound,growth inhibition [1],growth inhibition [2]
NC(=O)c1cnc(N[C@@H]2CCCC[C@@H]2N)nc1Nc1cccc(-n2nccn2)c1,72.4%,3.09%
Cc1cccc(-c2[nH]ncc2-c2ccc3ncccc3n2)n1,< 0%,< 0%
COc1ccccc1OCCNCC(O)COc1cccc2[nH]c3ccccc3c12 (configuration not stated) [Carvedilol],46.6%,26.5%
C[C@@H]1C(=O)O[C@H]2C[C@@]34[C@H]5C[C@@H](C(C)(C)C)[C@]36[C@@H](OC(=O)[C@@H]6O)O[C@@]4(C(=O)O5)[C@]21O [Ginkgolide A],41.7%,14%
CN1[C@@H]2CC[C@H]1C[C@@H](OC(c1ccccc1)c1ccccc1)C2 [Benztropine mesylate],0.562%,27.9%
Cc1ccc(C(=O)Nc2ccc(CN3CCN(C)CC3)c(C(F)(F)F)c2)cc1C#Cc1cnc2cccnn12,81.6%,97.2%
COc1cc(Br)c(Nc2nc(-c3c(C)nc4ncccn34)cs2)c(Br)c1,63%,5.56%
CC(C)c1c(C(=O)Nc2ccccc2)c(-c2ccccc2)c(-c2ccc(F)cc2)n1CC[C@@H](O)C[C@@H](O)CC(=O)O [Atorvastatin Calcium],21.8%,21.8%
"Nc1cc(C(F)(F)F)c(-c2cc(N3CCOCC3)nc(N3CCOCC3)n2)cn1 [BKM120 (NVP-BKM120, Buparlisib)]",63%,62.6%
Nc1ccccc1NC(=O)c1ccc(CNc2nccc(-c3cccnc3)n2)cc1 [Mocetinostat (MGCD0103)],80.9%,74.8%
O=C(Nc1ccc(OC(F)(F)F)cc1)c1sccc1NCc1ccnc2ccccc12,40.7%,30.1%
c1ccc2c(c1)CCCC2C1=NCCN1 (configuration not stated) [Tetrahydrozoline HCl],7.63%,7.06%
Oc1ccc(/C=C/c2cc(O)cc(O)c2)cc1 [Resveratrol],13.6%,34.7%
CN1CC(=O)N2[C@H](c3ccc4c(c3)OCO4)c3[nH]c4ccccc4c3C[C@@H]2C1=O [Tadalafil],35.1%,9.61%
CC(=O)Nc1ccc(C(=O)Nc2ccccc2N)cc1 [CI994 (Tacedinaline)],4.51%,33.8%
Cn1cnc2c(F)c(Nc3ccc(Br)cc3Cl)c(C(=O)NOCCO)cc21 [Selumetinib (AZD6244)],38.4%,45.2%
Cc1ccc(-c2c(-c3nn(C)c4ncnc(N5CC[C@H](N6CCCCC6)C5)c34)cnn2C)cc1,0.562%,41.7%
CN(C)CCc1c[nH]c2ccc(C[C@H]3COC(=O)N3)cc12 [Zolmitriptan],23%,6.66%
c1ccc2c(CC3=NCCN3)cccc2c1 [Naphazoline HCl],27.8%,11.8%
COc1cc([C@@H]2c3cc4c(cc3[C@@H](O[C@@H]3O[C@@H]5CO[C@@H](C)O[C@H]5[C@H](O)[C@H]3O)[C@H]3COC(=O)[C@H]23)OCO4)cc(OC)c1O [Etoposide],42.2%,41.3%
CC(C)c1nc(N(C)S(C)(=O)=O)nc(-c2ccc(F)cc2)c1/C=C/[C@@H](O)C[C@@H](O)CC(=O)O [Rosuvastatin Calcium],< 0%,21.5%
COc1ccc(C[C@@H]2c3cc(OC)c(OC)cc3CC[N@+]2(C)CCC(=O)OCCCCCOC(=O)CC[N@@+]2(C)CCc3cc(OC)c(OC)cc3[C@H]2Cc2ccc(OC)c(OC)c2)cc1OC [Cisatracurium Besylate],< 0%,< 0%

Compound,growth inhibition [1],growth inhibition [2]
CC(C)[C@H]1C(=O)N[C@@H](CCCNC(=N)N)C(=O)NCC(=O)N[C@@H](CC(=O)O)C(=O)N[C@H](Cc2ccccc2)C(=O)N1C [Cilengitide],36.2%,46.6%
Cc1ccc(C(=O)Cn2c3c(sc2=N)CCCC3)cc1 [Pifithrin-α (PFTα)],< 0%,9.02%
C=C(C)[C@@H]1CC[C@]2(C(=O)O)CC[C@]3(C)[C@H](CC[C@@H]4[C@@]5(C)CC[C@H](O)C(C)(C)[C@@H]5CC[C@]43C)[C@@H]12 [Betulinic acid],< 0%,13.9%
CC(C)(C)c1cc(NC(=O)Nc2ccc(-c3cn4c(n3)sc3cc(OCCN5CCOCC5)ccc34)cc2)no1 [Quizartinib (AC220)],56.7%,52.3%
CCN(CC)CCNC(=O)c1c(C)[nH]c(/C=C2\C(=O)Nc3ccc(F)cc32)c1C [Sunitinib Malate],39.3%,28.3%
O=c1cc(N2CCOCC2)oc2c(-c3ccccc3)cccc12,8.73%,29.8%
CCOc1cc(N)c(Cl)cc1C(=O)NCC1CN(Cc2ccc(F)cc2)CCO1 (configuration not stated) [Mosapride Citrate],11.8%,37.5%
CC1(C)Cc2c(-c3ccccc3)c(-c3ccc(Cl)cc3)c(CC(=O)O)n2C1 [Licofelone],1.16%,36.4%
COCC[n+]1c2c(n(Cc3cnccn3)c1C)C(=O)c1ccccc1C2=O [YM155 (Sepantronium Bromide)],99.4%,73.6%
C=CCc1cccc(/C=N/NC(=O)CN2CCN(Cc3ccccc3)CC2)c1O,< 0%,< 0%
CNCCc1ccccn1 [Betahistine 2HCl],< 0%,5.56%
CN1CCN(C(c2ccccc2)c2ccccc2)CC1 [Cyclizine 2HCl],12.8%,18.6%
O=C(O)CC[C@H]1CC[C@@](c2cc(F)ccc2F)(S(=O)(=O)c2ccc(Cl)cc2)CC1,< 0%,< 0%
CNC(=O)c1ccccc1Sc1ccc2c(/C=C/c3ccccn3)n[nH]c2c1 [Axitinib],83%,67.2%
Cc1[nH]c(/C=C2\C(=O)Nc3ccc(S(=O)(=O)Cc4c(Cl)cccc4Cl)cc32)c(C)c1C(=O)N1CCC[C@@H]1CN1CCCC1,33.2%,18.5%
"CCCS(=O)(=O)Nc1ccc(F)c(C(=O)c2c[nH]c3ncc(-c4ccc(Cl)cc4)cc23)c1F [Vemurafenib (PLX4032, RG7204)]",10.2%,33.7%
COc1ccc2c(c1)C(=O)N(CCc1ccc(S(=O)(=O)NC(=O)NC3CCCCC3)cc1)C(=O)C2(C)C [Gliquidone],< 0%,< 0%
Cc1c(Cc2ccc3ccccc3n2)c2cc(F)ccc2n1CC(=O)O,2.38%,11.9%
Clc1cccc(Cl)c1NC1=NCCN1 [Clonidine HCl],26%,5.22%
CN(C)c1ccc(-c2nc3ncc(Cl)c(N4CCN(CC(=O)Nc5nccs5)CC4)c3[nH]2)cc1,88.3%,87.4%
NC(=O)c1noc([C@H](CCCC2CCCCC2)CC(=O)NO)n1,< 0%,2.8%
CCN(CC)Cc1ccc2cc(COC(=O)Nc3ccc(C(=O)NO)cc3)ccc2c1 [Givinostat (ITF2357)],93.9%,88.8%

Compound,growth inhibition [1],growth inhibition [2]
Cc1ccccc1C(OCCN(C)C)c1ccccc1 (configuration not stated) [Orphenadrine Citrate],24.8%,24.8%
CN(Cc1cnc2nc(N)nc(N)c2n1)c1ccc(C(=O)N[C@@H](CCC(=O)O)C(=O)O)cc1 [Methotrexate],49.1%,35.3%
COc1ccc(NS(=O)(=O)c2sc3ccc(Cl)cc3c2C)cc1N1CCNCC1,< 0%,10.8%
O=c1cc(N2CCOCC2)oc2c(-c3cccc4c3sc3ccccc34)cccc12,< 0%,0.495%
CC(C)(CO)c1cc2cc(NC(=O)C3(c4ccc5c(c4)OC(F)(F)O5)CC3)c(F)cc2n1C[C@@H](O)CO,32.4%,8.19%
Cn1nnc2c(C(N)=O)ncn2c1=O [Temozolomide],43.9%,38.6%
COc1ccc(COc2ccc(Cc3cnc(N)nc3N)cc2OC)cc1,43.3%,5.56%
CCCc1nc2c(C)cc(-c3nc4ccccc4n3C)cc2n1Cc1ccc(-c2ccccc2C(=O)O)cc1 [Telmisartan],43.6%,19.9%
CC(C)(C)c1cnc(CSc2cnc(NC(=O)C3CCNCC3)s2)o1,100%,59%
CC[C@H]1OC(=O)[C@H](C)[C@@H](O[C@H]2C[C@@](C)(OC)[C@@H](O)[C@H](C)O2)[C@H](C)[C@@H](O[C@@H]2O[C@H](C)C[C@H](N(C)C)[C@H]2O)[C@](C)(OC)C[C@@H](C)C(=O)[C@H](C)[C@@H](O)[C@]1(C)O [Clarithromycin],30.4%,9.57%
COc1ccccc1N1CCN(CCCNc2cc(=O)n(C)c(=O)n2C)CC1 [Urapidil HCl],49.5%,11%
COC(=O)C1=C(C)NC(C)=C(C(=O)OC2CCCN(Cc3ccccc3)C2)C1c1cccc([N+](=O)[O-])c1 (configuration not stated) [Benidipine HCl],54.9%,11%
NC(=O)c1ccc(N(C(N)=O)c2c(F)cccc2F)nc1-c1ccc(F)cc1F,18.3%,< 0%
CN(C)CCC=C1c2ccccc2CCc2ccccc21 [Amitriptyline HCl],< 0%,17.5%
C[C@@H]1COC(Nc2ccc3ncnc(Nc4ccc(OCc5nccs5)c(Cl)c4)c3c2)=N1 [Varlitinib],< 0%,7.81%
Cc1ccc(Nc2nccc(N(C)c3ccc4c(C)n(C)nc4c3)n2)cc1S(N)(=O)=O [Pazopanib],< 0%,5.45%
CN(C)C(=O)c1cc2cnc(Nc3ccc(N4CCNCC4)cn3)nc2n1C1CCCC1,47.2%,13%
"O=C(CCCCCCC(=O)Nc1ccccc1)NO [Vorinostat (SAHA, MK0683)]",91.1%,83%
CCc1c2c(nc3ccc(OC(=O)N4CCC(N5CCCCC5)CC4)cc13)-c1cc3c(c(=O)n1C2)COC(=O)[C@]3(O)CC [Irinotecan HCl Trihydrate],18.2%,25.2%
O=C(NCCN1CCOCC1)c1ccc(Cl)cc1,< 0%,2.94%
CC1=C(C(=O)OC2CCCCC2)C(c2ccc([N+](=O)[O-])cc2)C2=C(CC(C)(C)CC2=O)N1 (configuration not stated),59.6%,19.1%
O=C(Cc1ccc(-c2ccc(OCCN3CCOCC3)cc2)cn1)NCc1ccccc1,70.4%,96.5%
